Article PMC12136788
The other results are listed elsewhere or left out.

B1: ENSG00000198589:be:win_8901|3pUTR|ENSG00000198589|bound_else_gene|NA|bound_elsewhere_windowed (ssRNA)
RNA: GGGAGUUCUACAGUCCGACGAUCUGAGAAAUAGGAUUUUCACAGUGGGGAAGUGGGUUACAAUAUUGGAAUAGGAAAAUUUGAUGCUGUAAUUUGGGUCCUGUAUUUUUCCAAACAACUGUGCUUCUUCAGCACUAAUAUUUCCAACAGAGGAUUGAGCAUCA
B2: chr6:111694403:111694505:-|CDS|ENSG00000010810|unk|total|mutant (ssRNA)
RNA: GGGAGUUCUACAGUCCGACGAUCAAUGGCUUACAUCGAGCGCAUGAAUUAUAUCCACCGAGAUCUGCGAUCAGCAAACAUUCCCGUGGGGAAUGGACUCAUAUGCAAGAUUGCUGACUUCGGAUUGGCCCGAUUGACCGAAGACAACAGAGGAUUGAGCAUCA
B3: chr19:3536616:3536717:+|3pUTR|ENSG00000105325|msi1|FALSE|unique (ssRNA)
RNA: GGGAGUUCUACAGUCCGACGAUCACCGCCGCAGGGCCAGGCGGACGGCGUGAGGUUUGUGUUGGGGCUGGUUCUGCCCAUGCUAGGGGGUGGGGGAGCUCCCAGGACAGACCAGCCUUGUUUCUCAUGUAAUGCAGUGACGCUCAACAGAGGAUUGAGCAUCA
B4: chr11:43494716:43494817:+|3pUTR|ENSG00000052841|unk|FALSE|unique (ssRNA)
RNA: GGGAGUUCUACAGUCCGACGAUCGUUACCCAUCUUGGAAUAAGUUGUGAAUGUCAGCUCCCUCUCUCUGAGGCCUCCAGACUUAGCUCCUCAGGAGGGUAAUGAGCCAAGGUUGAGUGUUUCCAUACAAUGCUUUUACCUUUGCAACAGAGGAUUGAGCAUCA
B5: chr14:44928120:44928223:-|3pUTR|ENSG00000179454|unk|total|mutant (ssRNA)
RNA: GGGAGUUCUACAGUCCGACGAUCCCGUACAGCAGGCCUCCCAGUGCUGAUGUAAAUAUUUGAGCAGUGUUCCGUACCAUUCUCCGUGCAUAUUAAUUUUUUUAUAUAUCCUUAUAAUUUCCGUUUUUUAAGAUCUUUGCUUUUCAACAGAGGAUUGAGCAUCA
B6: chr10:72012227:72012328:+|3pUTR|ENSG00000122863|msi1|total|mutant (ssRNA)
RNA: GGGAGUUCUACAGUCCGACGAUCCAAUGGAAGGAGCUUCAGCAGGAGGUCCUUCCCAGAAGGUUGAUUCUUGGCCUGGGUGGCCGAGGAGAUAUCCUGACCCUAAAGUCUUCCAGCCCCGGGUCAUCCUCUCCUAUACCCGGGCAACAGAGGAUUGAGCAUCA
B7: chr1:9729969:9730061:-|3pUTR|ENSG00000171603|msi1_unk|total|mutant (ssRNA)
RNA: GGGAGUUCUACAGUCCGACGAUCGUUUUUAUUUUUUCCAAACCCGUGCAUGUAUAAAUAAUGGCAGGAUGGGGGGUACUGUGCCGAUGAUUAACUGACUUUUUAAUAUUUUGUAAAUAAAUCGGAUUCCUUGUGUCCUUUGUGCAACAGAGGAUUGAGCAUCA
B8: chr15:34852525:34852627:-|3pUTR|ENSG00000021776|unk|FALSE|unique (ssRNA)
RNA: GGGAGUUCUACAGUCCGACGAUCCUAGCAUUUCCCAAACUUAUUAGAGCAUAAAACUUUGUUUUUGUUUUUUUUUAAUAAGAUAGGUAGCUAUUUCCUUAGAACACAGUUUGGGAAACUUUUUGUUCAUUUGUUUUAAUAAGACAACAGAGGAUUGAGCAUCA
B9: chr22:36489384:36489485:-|3pUTR|ENSG00000100350|msi1|FALSE|unique (ssRNA)
RNA: GGGAGUUCUACAGUCCGACGAUCGUGUCACUUGCCACACACUGCCUCAACCUCCCCGCCCCAUUUUCAGCAGGGUUUGGGCUUAGCUACAGAGCCCAAGAGGGUCAGCCCUGCUUAUCAUCAUAGGCCCAGCAGGCUGAUCUCCAACAGAGGAUUGAGCAUCA
B10: chr9:128108756:128108857:+|3pUTR|ENSG00000148339|msi1|FALSE|unique (ssRNA)
RNA: GGGAGUUCUACAGUCCGACGAUCAAGGCAGCAGCCCUGGCUCCUUUCCUUUGGCAGGUUGGGGAAGGGCUUGCCCCCAGCCUUAGGAUUUCAGGGUUUGACUGGGGGCGUGGAGAGAGAGGGAGGAACCUCAAUAACCUUGAACAACAGAGGAUUGAGCAUCA
B11: chr5:56893553:56893673:+|CDS|ENSG00000095015|unk|FALSE|unique (ssRNA)
RNA: GGGAGUUCUACAGUCCGACGAUCUGCUCCAUCGAUCCCUUCACAUUUGUCUCCUGGUUUACGAGAUGUGGCUCUUCGUUGUUUAGAACUUCAACCUCAGGACAGACCUCCAUCAAGAGAGCUACUGAAGCAUCCAGUCUUUCGCAACAGAGGAUUGAGCAUCA
B12: chr12:74541195:74541296:+|3pUTR|ENSG00000253719|msi1|FALSE|bound_elsewhere (ssRNA)
RNA: GGGAGUUCUACAGUCCGACGAUCUGGGGGAAGGGGGGGGUUCUUUAAAAUUUCUGUGGUUUGUGGCUUUUUCUUCCAUACAUUAGUUCCCACCAUCGCAUGCCCAGGGACCACUGCCUGGCAUUAUCGCAUGCUGGGAUCAUCCAACAGAGGAUUGAGCAUCA
B13: chr3:167478683:167478996:-|three_prime_utr|ENSG00000174776|control|control|control (ssRNA)
RNA: GGGAGUUCUACAGUCCGACGAUCCUGCCUUUUAUUUUAUUUUAUAUUUAAACUUCAGGAAGUUUUCUCUUCAUGGGAUAAUUUAGUACUGCUUUUAUCUAUCAUCUGUCAAUUUCUCUGUAUUCUUAAUAAAAUAAAUAUUGACAACAGAGGAUUGAGCAUCA
B14: ENSG00000070961:be:win_2751|CDS|ENSG00000070961|bound_else_gene|NA|bound_elsewhere_windowed (ssRNA)
RNA: GGGAGUUCUACAGUCCGACGAUCUGGUAGAAAUAAGCCUCUCAUCUCACGUACAAUGAUGAAGAAUAUUUUGGGUCAUGCAUUCUAUCAACUUGUAGUAGUCUUUACACUCUUAUUUGCUGGAGAAAAGUUUUUUGACAUUGACAACAGAGGAUUGAGCAUCA
B15: chr1:165910223:165910324:+|3pUTR|ENSG00000143179|unk|FALSE|unique (ssRNA)
RNA: GGGAGUUCUACAGUCCGACGAUCCCAGCAUUUGGCCAACUCUGUAUCUGAACUUGAGCUUUCUAUGGAACAAACAAUGGUCUUAGUUUUUUAAGAGCCUCUGGGUCUCUGAUUCCAUGGAGAGUCAGGAGUAGAAUUAGUGGACAACAGAGGAUUGAGCAUCA
B16: chr3:180614007:180614920:-|three_prime_utr|ENSG00000284862|control|control|control (ssRNA)
RNA: GGGAGUUCUACAGUCCGACGAUCUUGUAAACACAAAAACAAAAAUAUACUUUAAAAUACAAAACGACCCAACACAUUUUAUCUAGUGGAAAGUGUAAAAACUUAGUGGUAAGUGUAAAAACUGAUAGUUUUAAAAAAAAAGGACAACAGAGGAUUGAGCAUCA
B17: chr7:44624349:44624495:+|CDS|ENSG00000105953|unk|FALSE|unique (ssRNA)
RNA: GGGAGUUCUACAGUCCGACGAUCAGGCCAUUGACGGCUUCCCAGACUGUUAAGACAUUUUCACAAAACAGACCAGCAGCAGCUAGGACAUUUCAACAGAUUCGGUGCUAUUCUGCACCUGUUGCUGCUGAGCCCUUUCUCAGUCAACAGAGGAUUGAGCAUCA
B18: chr5:6668475:6668576:+|3pUTR|ENSG00000145545|unk|total|mutant (ssRNA)
RNA: GGGAGUUCUACAGUCCGACGAUCAUUUUUUCUAAUUUCAAAUUUACCUCUUUUGGCUAUGUCUUGCCAAGUGUGUAUGAGACCCGACUUUACAACUGUCUUUGAUGGCAUUUUCAGAACAAUAAAUGUCACAAUCCCUUCUAUCAACAGAGGAUUGAGCAUCA
B19: chr1:235977234:235977335:-|3pUTR|ENSG00000116962|msi1|total|mutant (ssRNA)
RNA: GGGAGUUCUACAGUCCGACGAUCGUCUAAGACCCCCAUUAUAAUAUUCAUGCGCUGCUUUUUCAUCAAAACCUACCCUGUCCCCGAGAUCUAUGGGCAUUUGGUGGAUGAUAAUGAGCAGCCCCUCCCAGACCGAAUGUCAAUCAACAGAGGAUUGAGCAUCA
B20: chr12:95514132:95514176:+|3pUTR|ENSG00000111142|msi1_unk|total|mutant (ssRNA)
RNA: GGGAGUUCUACAGUCCGACGAUCCUUUUAAAUGCUAACUGUUUUUCCCCUUCCUGUCCCGGAAAAUGCUAUAAAGCUCAAAUCCGUCCGGAAUGACUUAUACGUUUUGUUUUGAAUACCUAAGAGAUACUUUUUGGAUAUUUACAACAGAGGAUUGAGCAUCA
B21: chr22:19969400:19969501:+|3pUTR|ENSG00000093010|msi1|FALSE|unique (ssRNA)
RNA: GGGAGUUCUACAGUCCGACGAUCUCCCCACUGGGCCUUGCUUACAGAAGAGGCAAUGGCUCAGACCAGCUCCCGCAUCCCUGUAGUUGCCUCCCUGGCCCAUGAGUGAGGAUGCAGUGCUGGUUUCUGCCCACCUACACCUAGCAACAGAGGAUUGAGCAUCA
B22: chr7:82949737:82949846:-|CDS|ENSG00000186472|unk|total|mutant (ssRNA)
RNA: GGGAGUUCUACAGUCCGACGAUCAAGUCCUCAAUAUCUGAGUGCCACAUCUCCACCCAAAGACAAGAAACGCCCAACACCUUCCGAGAUUGGUUAUUCAUCUCACCUCCGGGCAGAUUCCACAGUACAGCUGGCUCCUUCCCCCAACAGAGGAUUGAGCAUCA

The binders below were run against MSI1 full-length (mouse, UniProt Q61474 1-362) (assay: nsRBNS (natural sequence RNA bind-n-seq); RBNS binding buffer (assumed for nsRBNS): 25 mM Tris pH 7.5, 150 mM KCl, 3 mM MgCl2, 0.01% Triton X-100, 500 ug/ml BSA, 20 U/ml SUPERase-In, 4 C; UNK is unkempt and MSI1 is Musashi-1; names of the RNAs are library labels; protein concentration not given here; high values mean tight binding).
Sequence of UniProt Q61474 (Q61474 whole entry): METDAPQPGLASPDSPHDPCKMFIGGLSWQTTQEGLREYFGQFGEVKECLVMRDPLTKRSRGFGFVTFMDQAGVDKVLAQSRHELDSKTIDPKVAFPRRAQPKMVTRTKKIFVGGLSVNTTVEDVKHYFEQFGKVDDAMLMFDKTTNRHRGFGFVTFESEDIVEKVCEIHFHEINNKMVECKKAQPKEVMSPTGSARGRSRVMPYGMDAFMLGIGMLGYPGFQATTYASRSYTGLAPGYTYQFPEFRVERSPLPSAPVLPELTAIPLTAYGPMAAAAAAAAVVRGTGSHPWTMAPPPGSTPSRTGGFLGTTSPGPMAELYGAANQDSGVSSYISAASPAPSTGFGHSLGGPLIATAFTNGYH
Binder B1 has a binding signal of 0.57 enrichment R. B2 was tested, and the binding signal was 0.197 enrichment R. For B3, the binding signal was 0.565 enrichment R. In the case of B4, the binding signal is reported as 0.47 enrichment R. Work on B5 yielded a binding signal of 8.16 enrichment R. B6 showed a binding signal of 0.338 enrichment R. In the case of B7, the binding signal is reported as 1.2 enrichment R. In the case of B8, the binding signal is reported as 13.5 enrichment R. With B9 the binding signal was 0.765 enrichment R. In the case of B10, the binding signal is reported as 0.54 enrichment R. B11 was tested, and the binding signal was 0.463 enrichment R. B12 showed a binding signal of 0.979 enrichment R. In the case of B13, the binding signal is reported as 1.98 enrichment R. Binder B14 has a binding signal of 0.876 enrichment R. For B15, the binding signal was 1.05 enrichment R. B16 was tested, and the binding signal was 6.76 enrichment R. B17 was tested, and the binding signal was 0.281 enrichment R. In the case of B18, the binding signal is reported as 0.43 enrichment R. B19 showed a binding signal of 0.973 enrichment R. B20 gave a binding signal of 0.386 enrichment R. In the case of B21, the binding signal is reported as 0.579 enrichment R. B22 showed a binding signal of 0.587 enrichment R.
